This note sets out measurements from PubChem BioAssay AID1645887 (National Center for Advancing Translational Sciences (NCATS), 2021).

Several values for one entry are separate records, joined by “and”; a condition that tells them apart may be missing. Equal values may be shown once. Among all 16,000 compounds or so, about 40 (0.2%) were called active. Not shown: some 1% with an inconclusive outcome. Calls come from the whole dose curve; as a rule, active = well fitted activation curve with a large enough effect; inconclusive = small, poorly fitted or top-dose-only effect, or another doubt; inactive = no such curve, though single readings can be large or run the other way. The list shows a part of the results. Some compounds were tested as several samples or in several runs, with calls that do not always agree.
% is set by controls: 0 for no effect and ±100 for the full control effect; potency is the fitted concentration of half-maximal effect.

The target in the assay is Rap guanine nucleotide exchange factor 4 (Homo sapiens) (UniProt Q8WZA2). Kind of assay: Validation qHTS for agonist of cAMP-regulated guanine nucleotide exchange factor 4 (EPAC2).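 For activation: exchange makes BODIPY-GDP fluorescence drop when released from Rap1B; series mostly up to about 150 µM.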 Particulars: EPAC2 Rap1B BODIPY-GDP exchange, fluorescence; activation: hits give high values. An outline of the steps: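 Signal normalized against 6.5 mM cAMP as agonist control. Mix of EPAC2 (100 nM), RAP1B-BODIPY-GDP (250 nM) and GDP (50 uM) was read kinetically at 480/540 nm, every 5 min over 30 min, after 5 min room-temperature incubation with compound.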
Sequence of UniProt Q8WZA2 (Q8WZA2 whole entry, looked up): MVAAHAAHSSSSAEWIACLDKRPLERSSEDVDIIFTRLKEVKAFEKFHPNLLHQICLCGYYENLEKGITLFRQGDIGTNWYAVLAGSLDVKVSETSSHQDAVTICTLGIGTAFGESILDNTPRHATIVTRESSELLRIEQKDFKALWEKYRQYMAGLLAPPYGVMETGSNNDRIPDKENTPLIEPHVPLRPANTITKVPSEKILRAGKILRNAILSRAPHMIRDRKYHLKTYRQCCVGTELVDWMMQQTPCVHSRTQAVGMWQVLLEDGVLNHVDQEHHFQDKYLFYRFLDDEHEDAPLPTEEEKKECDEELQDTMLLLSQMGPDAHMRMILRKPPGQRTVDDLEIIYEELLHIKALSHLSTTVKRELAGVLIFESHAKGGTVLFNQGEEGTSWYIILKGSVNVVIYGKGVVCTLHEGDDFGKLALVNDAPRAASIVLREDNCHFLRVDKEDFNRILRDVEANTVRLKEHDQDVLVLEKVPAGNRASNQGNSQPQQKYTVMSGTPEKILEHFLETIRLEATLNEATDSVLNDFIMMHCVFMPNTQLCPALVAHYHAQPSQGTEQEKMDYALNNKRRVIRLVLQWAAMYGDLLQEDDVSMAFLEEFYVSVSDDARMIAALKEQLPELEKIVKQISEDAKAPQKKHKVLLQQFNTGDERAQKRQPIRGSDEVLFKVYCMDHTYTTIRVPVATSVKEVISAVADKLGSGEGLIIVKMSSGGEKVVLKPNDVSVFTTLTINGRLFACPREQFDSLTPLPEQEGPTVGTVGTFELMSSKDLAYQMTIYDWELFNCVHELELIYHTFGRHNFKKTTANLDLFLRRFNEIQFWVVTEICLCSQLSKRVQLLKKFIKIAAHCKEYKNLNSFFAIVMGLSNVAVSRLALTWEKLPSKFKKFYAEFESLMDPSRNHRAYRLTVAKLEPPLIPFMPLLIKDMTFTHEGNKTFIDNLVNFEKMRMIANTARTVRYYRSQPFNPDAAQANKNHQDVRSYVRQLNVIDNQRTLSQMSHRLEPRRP
Turning to `CCc1noc(C)c1C(=O)NCCN1Cc2cc(OC)ccc2OC(CC)C1` (stereo not given), the activation was inactive: -13.7%.
On the same count and under the same terms, the result for `O=C(O)[C@@H]1C[C@H](C(=O)O)N1` reads inactive: -26.5%; that for `N#Cc1ccccc1-c1cncnc1NCc1cccnc1`, inactive: -12.6%.
Regarding `CC(=O)OCC(=O)[C@@]12OC(C)(C)O[C@@H]1C[C@H]1[C@@H]3C[C@H](F)C4=CC(=O)C=C[C@]4(C)[C@@]3(F)[C@@H](O)C[C@@]12C`, the activation is inactive: 6.84%.
Still for that read-out and setting: as for `Cc1cc(C)c(CN2CCC3(CCC(CNC(=O)c4ccn(C)n4)O3)CC2)cc1C` (stereo not given), the figure is inactive: -3.92%.
The same measure, in the same setting: the result for `O=S(=O)(c1ccccc1)N1CCC2(CCN(C(c3ccccc3)c3ccccc3)CC2)CC1` reads inactive: -6.85%; that for `C[C@]12CCC3c4ccc(O)cc4CCC3C1CC(O)C2O` (stereo not given in full), inactive: -9.02%; that for `O=C(c1ccc(C(F)(F)F)cc1)N(Cc1cc2ccc(F)cc2nc1N1CCOCC1)C1CC1`, inactive: -4.92%.
As to `O=C1CC2(CCCC2)CC(=O)N1CCCCNC[C@H]1COc2ccccc2O1`, the activation was inactive: -22.5%.
For `O=c1oc2c(O)c(O)cc3c(=O)oc4c(O)c(O)cc1c4c23`, the Potency is active: 126 µM and the activation is inactive: 0.203%.
Turning to `c1ccc(-c2ccc(N3CCCC4(CCNCC4)C3)cc2)cc1`, the activation was inactive: -11%.
Still for that read-out and setting: as for `COC(=O)c1ccccc1NS(C)(=O)=O`, the figure is inactive: -20.1%; as for `Cc1noc(C)c1C(=O)N1CCC2(CC1)CN(c1cccc(-c3ccccc3)c1)C2`, inactive: 3.59%.
Regarding `COc1ccc(Oc2ncc3nc(-c4cc(F)cc(F)c4)c(=O)n(C)c3n2)cc1`, the activation is inactive: -14.8%.
Regarding `COc1ccc(-c2coc3cc(OC(C)=O)cc(OC(C)=O)c3c2=O)cc1`, the activation is inactive: -0.494%.
For `NC(=O)NCCC[C@H](N)C(=O)O`, the activation was inactive: 6.95%.
As to `CC(C)C[C@H]1C(=O)N2CCC[C@@H]2[C@]2(O)O[C@](NC(=O)[C@@H]3C=C4c5cccc6[nH]c(Br)c(c56)C[C@H]4N(C)C3)(C(C)C)C(=O)N12`, the activation was inactive: -8.02%.
On the same count and under the same terms, the result for `c1coc(CNc2ncnc3nc[nH]c23)c1` reads inactive: -0.955% and inactive: -23.9%; that for `COc1ccc2[nH]cc(CCNc3ncncc3-c3cccc(C#N)c3)c2c1`, inactive: 3.1%; that for `S=C(S)N1CCCC1`, inactive: -3.64% and inactive: -26.9%.
Still for that read-out and setting: the result for `O=C1NS(=O)(=O)c2ccccc21` reads inactive: -7.29% and inactive: 0.068%; that for `O=S(=O)(O)c1cc(O)c2c(N=Nc3ccc(Nc4ccccc4)c4c(S(=O)(=O)O)cccc34)cc(S(=O)(=O)O)cc2c1`, inactive: -23.8%.
Consider `NS(=O)(=O)c1cc2c(cc1Cl)NC(C1CC3C=CC1C3)NS2(=O)=O` (stereo not given), for which the activation is inactive: -11% and inactive: -4.46%.
As to `c1ccc2c(N3CCNCC3)nc(-c3ccc4c(c3)OCO4)nc2c1`, the activation is inactive: -9.61%.
Still for that read-out and setting: the result for `CC(=O)CC(c1ccccc1)c1c(O)c2ccccc2oc1=O` (stereo not given) reads inactive: -19% and inactive: -17.2%.
As to `C(=C\c1ccc2ccccc2n1)/c1ccc2ccccc2n1`, the activation was inactive: -21.2%.
Regarding `CC(C)(C)c1ccc(C(=O)N2CCC3(CC2)CC3C(=O)NCCc2ccccn2)cc1` (stereo not given), the activation was inactive: 7.29%.
With `CCNc1ncc2nc(-c3ccc(OC)cc3)c(=O)n(CCc3ccccc3)c2n1`, the activation is inactive: 6.79%.
On the same count and under the same terms, the result for `O=C1CC(c2ccc(O)cc2)Oc2cc(O)cc(O)c21` (stereo not given) reads inactive: -7.51% and inactive: 4.08%.
`CN1CCN(c2ncc3nc(CCc4ccccc4)c(=O)n(CCC#N)c3n2)CC1`: the activation was inactive: -19.4%.
On the same count and under the same terms, as for `O=C(c1cnccn1)N1CCC2(CCCN(C(c3ccccc3)c3ccccc3)C2)CC1`, the figure is inactive: -40.9%; as for `CN(C)C(=O)c1ccc(-c2ccc3ncnc(Nc4ccc(F)cc4)c3c2)cc1`, inactive: -5.7%; as for `O=C(Nc1cccc(C(=O)Nc2ccc(S(=O)(=O)O)c3cc(S(=O)(=O)O)cc(S(=O)(=O)O)c23)c1)Nc1cccc(C(=O)Nc2ccc(S(=O)(=O)O)c3cc(S(=O)(=O)O)cc(S(=O)(=O)O)c23)c1`, inactive: -4.7% and inactive: 6.43% and inactive: -8.86%.
Consider `O=C(CN1C(=O)c2ccccc2C1=O)NCC1Cc2cccc(-c3ncccn3)c2O1` (stereo not given), for which the activation was inactive: -11.7%.
Still for that read-out and setting: as for `CC(=O)OC1CC[C@]2(C)C(CC[C@@]3(C)C2C(=O)C=C2C4C(C)C(C)CC[C@@]4(C(=O)O)CCC23C)C1(C)C` (stereo not given in full), the figure is inactive: -53.9%; as for `C[C@]12C=CC(=O)C=C1CCC1C2C(=O)C[C@]2(C)C1CC[C@]2(O)C(=O)CO` (stereo not given in full), inactive: 2.09%; as for `Cc1ccnc2c(Cl)cccc12`, inactive: -24.9%.
Turning to `Cn1nccc1C(=O)NCC1CCC2(CCN(Cc3c(O)ccc4ccccc34)CC2)O1` (stereo not given), the activation was inactive: -3.38%.
Still for that read-out and setting: as for `COc1ccc2c(c1)OC(C)CN(CCNC(=O)c1cc3cc(F)ccc3[nH]1)C2` (stereo not given), the figure is inactive: -6.86%.
With `COc1cccc2c1C(=O)c1c(O)c3c(c(O)c1C2=O)C[C@@](O)(C(C)=O)C[C@@H]3O[C@H]1C[C@H](N)[C@H](O)[C@H](C)O1`, the Potency is active: 100 µM.
Turning to `CCN1CCN(C(=O)N[C@@H](C(=O)N[C@@H]2C(=O)N3[C@@H]2SC(C)(C)[C@H]3C(=O)O)c2ccccc2)C(=O)C1=O`, the activation was inactive: -20.1%.
On to `CNC(=O)c1cc(Oc2ccc(NC(=O)Nc3ccc(Cl)c(C(F)(F)F)c3)cc2)ccn1`, for which the activation is inactive: 16.4%.
On the same count and under the same terms, the result for `COc1ccc(C2CC(=O)c3c(O)cc(O[C@H]4OC(COC5OC(C)C(O)C(O)[C@@H]5O)C(O)C(O)C4O)cc3O2)cc1O` (stereo not given in full) reads inactive: -13.3%; that for `C[C@@]12CCC(O)C[C@H]1CCc1ccccc12` (stereo not given in full), inactive: -5.37%; that for `CCNc1ncc2nc(-c3ccccc3)c(=O)n(Cc3cccs3)c2n1`, inactive: -11.1%.
Same read-out and setting: as for `Cc1ccc2[nH]c3c(c2c1)CN(C(=O)CC1(c2ccccc2)CC(=O)N(Cc2cccnc2)C1=O)CC3` (stereo not given), the figure is inactive: 1.97%.
On to `O=C(O)[C@H]1CN(C/C=C/P(=O)(O)O)CCN1`, for which the activation is inactive: -6.05%.
Same read-out and setting: as for `CNc1nc(-c2cccc(NS(C)(=O)=O)c2)nc2ccccc12`, the figure is inactive: -10.5%; as for `CC1(C)N=C(N)N=C(N)N1c1ccc(Cl)cc1`, inactive: 3.38%.
On the same count and under the same terms, the result for `N#Cc1cccc(-c2cncnc2NCc2cccnc2)c1` reads inactive: 0.482%; that for `C[C@@H](NCCc1ccc(O)cc1)[C@@H](O)c1ccc(O)cc1`, inactive: -3.37%; that for `COCC1CCCN(Cc2ccc3c(c2)CN(C(=O)c2ccnn2C)CCO3)C1` (stereo not given), inactive: -4.62%.
Same read-out and setting: the result for `COc1ccc(NS(=O)(=O)c2ccc(I)cc2)cc1N1CCN(C)CC1` reads inactive: -15%; that for `COc1ccc(-n2c(=O)c(-c3cccs3)nc3cnc(Nc4ccccc4)nc32)cc1`, inactive: -5.89%.
In the case of `COc1ccc(C(=O)N2CCC3(CC2)CCN(c2ncccn2)CC3)cc1`, the activation was inactive: -17%.
Same read-out and setting: the result for `CN1C(CCl)Nc2cc(Cl)c(S(N)(=O)=O)cc2S1(=O)=O` (stereo not given) reads inactive: 0.471%; that for `Brc1ccc2c(ccc[n+]2CCc2ccccc2)c1`, inactive: -22.7%.
Take `Ic1ccc(N2CCN(Cc3c[nH]c4ncccc34)CC2)cc1`: the activation is inactive: 0.731% and inactive: -25.7%.
With `CCCN(CC)C(CC)C(=O)Nc1c(C)cccc1C` (stereo not given), the activation was inactive: -0.674%.
Regarding `COc1cc(=O)n2c(c1C(=O)NCc1ccco1)CCN(Cc1cc3ccccc3[nH]1)CC2`, the activation is inactive: -4.5%.
On the same count and under the same terms, as for `OCc1ccccc1O[C@@H]1O[C@H](CO)[C@@H](O)[C@H](O)[C@H]1O`, the figure is inactive: 5.72%.
Consider `CNc1nc(-c2ccccc2C(F)(F)F)nc2ccccc12`, for which the activation is inactive: -5.8%.
For `Cc1noc(C)c1C(=O)N1CCC[C@@]2(CCN(c3cccc(-c4ccccc4)c3)C2)C1`, the activation was inactive: -14.2%.
As for `CS(=O)(=O)Nc1cccc(-c2cncnc2Nc2ccc(F)cc2)c1`, the activation was inactive: -16.6%.
Take `FC(F)(F)c1ccccc1-c1cncnc1-n1ccnc1`: the activation is inactive: 6.36%.
Still for that read-out and setting: the result for `C=C1CC[C@@H]2[C@](C)(CO)[C@H](O)CC[C@@]2(C)[C@@H]1C/C=C1/C(=O)OC[C@H]1O` reads inactive: -48.5%; that for `Cc1c(C(=O)N(CCO)C(C)C)cnn1-c1ncc2c(n1)-c1ccccc1CCC2`, inactive: -15.9%.
Same read-out and setting: the result for `COc1ccc(-c2nc3cnc(N(C)C)nc3n(-c3ccccc3)c2=O)cc1` reads inactive: 1.8%; that for `CCN(CC)CCN(C)c1ccc(/C=C/c2ccnc3ccccc23)cc1`, inactive: 0.0384%.
On the same count and under the same terms, as for `Cc1cn([C@H]2C=C[C@@H](CO)O2)c(=O)[nH]c1=O`, the figure is inactive: -6.15% and inactive: 7.4%.
As for `CS(=O)(=O)N1CCC2(CCCN(c3ccncc3)C2)CC1`, the activation is inactive: -7.01%.
For the compound `CC(=O)N1CCC2(CCCN(c3ccccc3)C2)CC1`, the activation was inactive: -1.64%.
On the same count and under the same terms, the result for `CC[C@H](C)[C@@H]1NC(=O)[C@H](Cc2ccc(O)cc2)NC(=O)[C@@H](N)CSSC[C@@H](C(=O)N2CCC[C@H]2C(=O)N[C@@H](CC(C)C)C(=O)NCC(N)=O)NC(=O)[C@H](CC(N)=O)NC(=O)[C@H](CCC(N)=O)NC1=O` reads inactive: -22%.
On to `CC(=O)NS(=O)(=O)c1ccc(N)cc1`, for which the activation was inactive: -11% and inactive: -3.61%.
On the same count and under the same terms, the result for `CCc1cccc(N(C)C(N)=Nc2cccc3ccccc23)c1` reads inactive: -6.71% and inactive: -38.4%; that for `O=c1[nH]c2ccccc2n1CCCN1CCN(C(c2ccccc2)c2ccccc2)CC1`, inactive: 0.154%.
Same read-out and setting: the result for `Nc1nc(Cl)nc2c1ncn2[C@@H]1O[C@H](CO)[C@@H](O)[C@H]1O` reads inactive: 1.37% and inactive: -3.39% and inactive: -17.2%.
`COc1ccc(NC(=O)N2CC3(CCN(C(=O)c4ccc(OC)cc4)CC3)C2)cc1`: the activation is inactive: -3.88%.
Regarding `N#C[C@H](Cc1ccc(O)cc1)c1ccc(O)cc1`, the activation was inactive: -12.7%.
